{"source": "PubChem BioAssay AID1460", "about": "(National Center for Advancing Translational Sciences (NCATS), 2008)", "note": "Hit rate of the full screen: of about 270,000 compounds, about 5,800 (2.1%) were called active. The shares of active, inactive and inconclusive entries below differ from those in the screen. Calls follow the shape of the dose curve; as a rule, active = well fitted inhibition curve with a large enough effect; inconclusive = small, poorly fitted or top-dose-only effect; inactive = flat fitted curve, though single readings scatter. Potencies beside an inconclusive call are fits to weak or partial responses and may not hold up. % is scaled to controls: 0 for no effect and ±100 for the full control effect; potency is read from the fitted curve at half-maximal effect; tags tell the direction and shape of the fitted curve.", "data": [{"biological_target": "Microtubule-associated protein tau (Homo sapiens) (UniProt P10636)", "sequence (P10636 whole entry, looked up)": "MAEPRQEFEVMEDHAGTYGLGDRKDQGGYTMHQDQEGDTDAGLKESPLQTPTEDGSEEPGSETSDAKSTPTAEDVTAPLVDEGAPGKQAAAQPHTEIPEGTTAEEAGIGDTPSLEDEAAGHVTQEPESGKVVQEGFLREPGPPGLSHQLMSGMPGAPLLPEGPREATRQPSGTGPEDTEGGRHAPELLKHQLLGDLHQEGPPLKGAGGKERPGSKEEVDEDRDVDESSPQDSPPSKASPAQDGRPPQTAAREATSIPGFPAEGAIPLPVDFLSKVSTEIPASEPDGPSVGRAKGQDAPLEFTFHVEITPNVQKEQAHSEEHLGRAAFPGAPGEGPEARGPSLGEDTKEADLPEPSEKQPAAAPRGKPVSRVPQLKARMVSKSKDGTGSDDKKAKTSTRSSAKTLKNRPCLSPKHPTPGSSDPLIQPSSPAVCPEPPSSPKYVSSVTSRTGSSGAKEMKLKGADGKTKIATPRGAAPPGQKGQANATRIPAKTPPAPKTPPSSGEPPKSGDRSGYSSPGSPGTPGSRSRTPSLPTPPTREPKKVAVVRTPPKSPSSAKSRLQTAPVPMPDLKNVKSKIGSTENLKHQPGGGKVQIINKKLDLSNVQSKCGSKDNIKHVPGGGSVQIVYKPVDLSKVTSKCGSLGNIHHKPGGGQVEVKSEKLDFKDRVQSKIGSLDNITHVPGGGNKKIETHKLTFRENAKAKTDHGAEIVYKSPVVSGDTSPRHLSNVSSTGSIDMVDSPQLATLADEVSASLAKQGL", "assay": "qHTS for Inhibitors of Tau Fibril Formation, Thioflavin T Binding; also: nearly all actives have a fitted effect of over 55% in size", "details": "recombinant tau K18 P301L, heparin-induced fibrillization, ThT fluorescence; series mostly up to 57.4 µM; activity, negative = inhibition: at the top concentration", "summary_of_the_method": "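Fibril formation assay: tau K18 P301L at 15 uM with trace Alexa 594 label, heparin inducer 20 uM, pH 7 sodium acetate buffer, 37 C for 6 hr; endpoint ThT signal.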", "values": [{"smiles": "COc1ccc2sc(/C=C/c3ccccc3O)[n+](C)c2c1", "Potency": "inconclusive: 6.31 µM [inhibitor, partial curve]"}, {"smiles": "Cc1ccccc1CNC(=O)c1cc2cc(S(=O)(=O)N3CCCCC3)ccc2n1C", "activity, negative = inhibition": "inactive: 3.33%"}, {"smiles": "CC(C)(C)c1ccc(-n2nc(C(N)=O)c(O)cc2=O)cc1", "activity, negative = inhibition": "inactive: -0.188%"}, {"smiles": "CS(=O)(=O)c1ccc(C(=O)OCC(=O)NC2CCS(=O)(=O)C2)cc1[N+](=O)[O-]", "note": "(stereo unspecified)", "Potency": "inconclusive: 14.1 µM [inhibitor, partial curve]"}, {"smiles": "Cn1cnc2c(ncn2[C@@H]2O[C@H](CO)[C@@H](O)[C@H]2O)c1=N", "activity, negative = inhibition": "inactive: 4.98%"}, {"smiles": "CC(C)(C)OC(=O)NCCCC[C@H](NC(=O)c1nc[nH]c1C(=O)NCc1ccccc1)C(=O)OC(C)(C)C", "Potency": "inconclusive: 12.6 µM [inhibitor, single point]"}, {"smiles": "COc1ccc(C(=O)NCCn2cc(SCc3cc(C)ccc3C)c3ccccc32)cc1", "Potency": "inconclusive: 8.91 µM [inhibitor, partial curve]"}, {"smiles": "COc1ccc(NC(=S)Nc2ncccc2C)cc1OC", "Potency": "inconclusive: 20 µM [inhibitor, partial curve]"}, {"smiles": "CCOc1ccccc1NC(=S)Nc1ncccc1C", "activity, negative = inhibition": "inactive: -9.76%"}, {"smiles": "N#CC1=C2SCN(Cc3ccco3)CN2C(=O)CC1c1ccc(Cl)cc1", "note": "(stereo unspecified)", "Potency": "active: 17.8 µM"}, {"smiles": "CCOC(=O)c1c(C)oc2nc(C)nc(NCCCN3CCN(c4ccc(F)cc4)CC3)c12", "Potency": "inconclusive: 22.4 µM [inhibitor, single point]"}, {"smiles": "O=C(Nc1nc2ccccc2[nH]1)c1ccc([N+](=O)[O-])cc1", "Potency": "inconclusive: 1.78 µM [inhibitor, full curve]"}, {"smiles": "COc1ccc(NC(=S)N(CCCN2CCCCCC2)Cc2cccs2)cc1", "Potency": "inconclusive: 0.447 µM [inhibitor, partial curve, poor fit]"}, {"smiles": "O=C(CSc1nnc(CCc2ccccc2)n1-c1ccc(Cl)cc1)NCc1ccccc1", "activity, negative = inhibition": "inactive: -8.29%"}, {"smiles": "Nc1nc2ccc(N3CCOCC3)cc2s1", "Potency": "inconclusive: 15.8 µM [inhibitor, partial curve]"}, {"smiles": "CSc1nc2ccc3nc(NC(=O)c4cccs4)sc3c2s1", "activity, negative = inhibition": "inactive: -1.32%"}, {"smiles": "COc1ccc(Cl)cc1NC(=O)Cn1cnc2c1c(=O)n(C)c(=O)n2C", "activity, negative = inhibition": "inactive: 0.773%"}, {"smiles": "Cn1cccc1Cc1nnc(SCC(=O)N2CCN(c3ccccc3)CC2)n1-c1ccc(F)cc1", "Potency": "inconclusive: 20 µM [inhibitor, single point]"}, {"smiles": "Cc1ccc(CNC(=O)CCCn2c(=O)c3ccccc3n(Cc3ccccc3C)c2=O)cc1", "activity, negative = inhibition": "inactive: 1.19%"}, {"smiles": "O=C(NN1C(=O)C2C3C=CC(O3)C2C1=O)c1cccc(Br)c1", "note": "(stereo unspecified)", "activity, negative = inhibition": "inactive: -7.46%"}, {"smiles": "CC1CN(c2c(F)c(N)c3c(=O)c(C(=O)O)cn(C4CC4)c3c2F)CC(C)N1", "note": "(stereo unspecified)", "activity, negative = inhibition": "inactive: -8.24%"}]}]}
